Measurements as given in the supplement of paper PMC3334620.
Whole data set: some 33,000 sequences, median “E-score (-0.5 to 0.5)” near -0.01, cut for the highest 2% near 0.26. The list shows a part of the results.

These sequences were tested against Ste12 (UniProt P13574) (assay: PBM E-score (8-mer binding enrichment) (E-score (-0.5 to 0.5)); higher = stronger / more preferred TF binding; most listed sequences are background and not binding sites). Details: protein concentration: 200 nM; construct: GST-DNA-binding domain.
Procedure: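 Universal 'all 10-mer' protein binding microarrays (Agilent AMADID 015681) probed with GST-tagged S. cerevisiae TFs (full-length or DBD) made by in vitro transcription/translation (PURExpress), about 100-200 nM. Bound TF was detected with fluorescent anti-GST. Each ungapped 8-mer (which stands for itself and its reverse complement) is scored by the PBM enrichment score (E-score), a modified Wilcoxon-Mann-Whitney statistic from -0.5 to +0.5, computed with the Universal PBM Analysis Suite. Scale: above 0.35 generally sequence-specific binding.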

Sequence | PBM E-score
AGACATGA | 0.0104
GGAACTTA | -0.0549
CCTAGGAC | -0.136
GAGTCAGC | -0.22
CCCCTCAC | 0.126
GCGATGCC | -0.135
GTGAGCAA | -0.0818
ACAAATCG | 0.0871
AGCATATG | -0.118
ATTGGGGC | 0.00708
AAGGCCCG | -0.308
AAGATAGG | -0.0454
ACTGATTC | 0.0462
GAAATTCA | 0.239
CACGTGCA | -0.143
CTTAGCAA | 0.115
CCGCAAGC | -0.226
GTCGCGAC | 0.389
AACCTATG | -0.0828
CGGTAAGC | -0.0643
AGCTTAAA | 0.141
ATGAGGGC | 0.0389
GGACCTCA | -0.0507
GCTTCAAA | 0.134
AACGTGCC | 0.00592

Sequence | PBM E-score
AGCTTCTG | -0.0574
GGCACTGA | -0.0616
CTAACTTC | -0.0517
AGAACATC | -0.0976
AATGTGCG | 0.125
ACAAAGGC | -0.103
CACCCGCA | -0.028
AACAACAT | 0.0818
GCGCTTAC | -0.198
ACTCAAGT | -0.252
GGGCTACA | -0.155
TGCGGACA | -0.0266
AGTGTAGG | 0.00693
CACAGAGC | 0.0587
AGATTTTG | 0.143
GACATAAC | 0.178
TAAACAAA | 0.244
CGGCTTGA | 0.0654
CAACGCCC | 0.0507
CTTTGGAA | 0.0562
CGGATATA | 0.199
CTACAATC | 0.184
CCGACAGG | -0.0536
CAATACAG | -0.115
ATCGCGTG | 0.0752

Sequence | PBM E-score
AAATTCGC | 0.101
CGCTGCTC | -0.167
CCTTAATC | -0.00965
AGGCTACA | -0.0865
ACTCTCAA | 0.00648
CAGGGCCC | -0.148
CGTATTTA | 0.244
GGCCAGTA | 0.143
AGATCCCG | 0.0252
AAGGTTAG | -0.129
CGATCAGC | -0.0721
CACCTCTA | -0.0795
CTGTTAAC | 0.146
ACTTAAAG | 0.0758
AATGTTAT | 0.265
ACCACCCC | 0.0858
CCTTACCA | -0.00923
CCAGCACC | -0.154
ATCGATTA | 0.0263
GCACTACA | -0.231
ACGTATCT | -0.116
CCAATGCC | -0.125
CGTAGCCC | -0.148
AATGTTGG | 0.145
GAAACCGC | 0.351

Sequence | PBM E-score
ATTTAACG | 0.132
AAGGGCCT | -0.00237
AGAGTCGC | -0.0718
GAGCGTCC | -0.0691
AATGGACG | 0.0787
TCGGAACA | 0.143
GGGGCTGA | -0.185
ACTCCTAG | -0.132
ATGACACC | 0.0248
AACGGCGA | 0.125
GGGCATCA | -0.0616
CTGATGTC | -0.0261
ACTGAACC | -0.0598
AGCTCCGC | -0.173
AACAAGAC | 0.09
ACTAACGC | -0.0491
CGGTACAC | -0.166
GACTGATA | -0.0649
ATTCTTCA | 0.00905
AATGGTGC | -0.0499
AGGGGGGA | -0.0599
CACTGGGA | -0.147
TAGTTCCA | 0.0743
AATATCTG | 0.00966
ATTGCTGC | -0.00539

Sequence | PBM E-score
CAACCCTC | -0.125
GGTTAACA | 0.25
CCCGGCTA | -0.064
CGGAGTCA | -0.129
AGTATAAC | -0.185
CAGGGCCG | -0.107
GAATCCCA | 0.0202
TCGTTCAA | 0.0118
CTATTAAA | 0.219
CCTGGCAC | -0.0664
AATTAGTG | 0.235
TATCCCGA | 0.0563
CAGGTCTC | 0.0453
ATTGTCCA | 0.033
AACAATTC | 0.124
AGGTTTAG | 0.0936
CAAAAAGC | 0.21
CGCGCGGC | 0.306
ATCTTAAC | 0.169
AGCATTCG | -0.195
CTAGAAGC | -0.0402
CCAGTAGA | -0.0672
ATCATAAC | 0.112
GGATCTTA | 0.0306
AGTAGAAC | -0.0785

Sequence | PBM E-score
ACAGATTA | -0.0787
AGGATGCC | -0.203
AGAAGCTG | -0.0487
ACCTTAGA | -0.118
TACAGACA | 0.0984
CCTTCCGA | -0.115
GGTTTTAC | 0.00234
TGACGACA | 0.0522
CCCGCGCA | 0.0184
CCACCGCA | 0.0392
TACATTCA | 0.122
GCAGCATA | -0.0208
ACGCAAAA | 0.0901
CCCCTACA | -0.142
AGTTTCAT | 0.428
AACAAAGC | 0.294
ATCCTCAG | 0.0112
CGCCTCGA | 0.106
CATAACCG | 0.0365
CCCCGGCC | -0.0295
ATCTTGTG | -0.07
AAGGAAGT | -0.0799
ACTCGTCC | -0.109
GAGCACAA | -0.0284
CATGCGAC | 0.145

Sequence | PBM E-score
CAAATTTA | 0.217
GCAAGCAA | -0.0907
AATTGGAG | -0.0419
CCGCCGCC | 0.164
GAAAAGCA | 0.0143
CACCAGAC | 0.0132
CTTCGAAG | -0.063
GATCGTGC | 0.0893
ATGCTTAC | -0.0145
AACGGTAG | -0.113
GCACTGGC | -0.224
ACATTCCC | 0.119
GACGAAAC | 0.222
TATTCAAA | 0.239
AGTGTGGA | -0.172
ATTCGACG | 0.087
ATACCCAC | -0.0583
GGTGCGCA | 0.232
ACTATGGC | -0.0292
AGGTTTGC | -0.147
ACTTGGAG | -0.0815
AGTCGACT | 0.186
ACAGATGT | -0.0044
GCGCGCGA | 0.154
CCTCTATC | -0.159

Sequence | PBM E-score
AAGCGGTA | 0.0316
ACGCGAGG | -0.0654
AAGATAAA | 0.214
AGTGTCAT | 0.168
AGGACCGA | -0.0176
CAGCGTGA | -0.204
AGGATTTA | 0.103
ATGTTTAG | 0.214
TCTCCCAA | 0.102
GCTTCACC | -0.188
CTCATCAG | 0.147
CAGTATCA | 0.0753
ATGCCACG | -0.0606
GTCAGCTA | -0.21
GTATGGCA | -0.00895
ATTAACAG | 0.0374
ATATTGTG | 0.107
CAGTTCAC | -0.152
AGAGGCAC | -0.183
CACACAAA | 0.122
GTGCGCGA | 0.159
GCAGTGCA | -0.0828
ACCACGGA | -0.116
TAACTGAA | 0.0993
ACTTTTCG | 0.241

Sequence | PBM E-score
TTAGAAAA | 0.175
CTGAGCTA | -0.264
CACTTGTA | 0.0115
AGGTACGG | -0.229
ACAGGCGG | -0.128
CAGAGTAG | 0.0106
ATGACATG | -0.232
ACGGCTGG | -0.171
CGCTGATA | -0.0639
TAAATATA | 0.321
ACTGGCCT | -0.0483
GCTTGGCA | -0.277
CTTCGAGA | -0.11
GTCAAAAA | 0.233
AAAGTGAC | -0.00668
CCTAGTCA | -0.0514
ACGACAAG | 0.0764
GACAGTCC | -0.183
AATATACC | 0.212
ACCATACC | -0.0304
CCCAGAGA | -0.0416
CATGTGTC | 0.0145
CGACCTCA | -0.124
CCCTACGA | -0.0392
ACGAGGAG | -0.0506

Sequence | PBM E-score
AAGTGGGC | -0.0304
AAAAGTTT | 0.283
ATCAGCAT | 0.0807
ATGAACCA | 0.173
CCCTAACC | 0.0973
TATGCTGA | 0.14
ACTGCAAA | 0.0632
CCGTGGAA | 0.191
CCTGGCAG | -0.103
ACTTATCG | 0.0899
CCGGTTCC | -0.0853
CGAGCCCG | -0.0148
TGCGAGAA | 0.0173
CCTACTAA | 0.0824
CAACATTA | 0.0846
ATACCAAG | 0.235
ACGTCGAC | -0.0338
ACCACTCT | -0.189
CTGCCCAC | -0.193
GCATAAGC | 0.122
ACTCCTAC | -0.124
AGACTCGG | -0.179
GGTGGCGA | -0.0597
CACATACC | -0.22
GAACTTAC | -0.107

Sequence | PBM E-score
GTCACGAA | 0.206
CGGACAAA | 0.0587
AGCTTCTC | -0.187
AATGTTAC | 0.0846
CGGTCTTA | -0.0177
AGTCGGTC | -0.174
AAAACGGC | 0.225
CGGAACAA | 0.181
CGTGGGCC | -0.144
AGCAAAAT | 0.129
CTGGACGA | -0.16
CGTCTTAA | -0.0333
GTTTATGA | 0.0999
ATCTTGAA | 0.00108
AGGGTACA | -0.00798
ACAGGGTC | -0.115
AATCAGCC | -0.0704
TTCTTCAA | -0.00874
TAAGATAA | 0.0959
CTGTTGTC | -0.0526
CTCTGGCA | 0.0647
CTTTTACC | 0.0888
TCCAAACA | 0.0573
CGCTTTTC | 0.142
GACAAGAC | 0.0371

Sequence | PBM E-score
AACGTTGT | 0.189
CGAAGACG | -0.13
CAGTGAGA | 0.0675
ATACCTGG | -0.0421
CGATGTGA | 0.046
TGCGGCAA | -0.00227
GTAACCAC | -0.00545
AGAAAGAT | 0.0761
CATACTTC | -0.0961
CTTCCTTC | -0.198
CTATGCTC | -0.0127
ATTAGGGA | -0.00141
AAACGCTG | 0.0873
AATAGGGG | 0.0284
CGCAGGAG | -0.0115
GCCCACAC | 0.0974
AAGGTGTC | -0.125
ACGGTAGT | -0.162
ATGTGCAG | -0.18
CCTAGGGC | -0.186
ATTATTAC | 0.269
CATGAATG | 0.0749
CGAATACA | 0.0383
ATATCATG | -0.0327
CCTTCTAA | -0.209

Sequence | PBM E-score
GCAGTAAA | 0.221
AGCTTAAC | -0.201
AGTTTTCC | -0.0188
ATGCAGAA | -0.0849
CCAGCGGG | -0.163
ATATGTAG | 0.0162
AAAACACG | 0.304
GCTGGCTA | -0.2
CCGTAAGG | -0.214
GTTAGATA | 0.171
ACTCGCAT | -0.0182
CTTGGGGA | 0.0413
CACATGCC | -0.0269
CACGCGAG | 0.0636
GAGCAGAC | 0.00165
AGTAAAGG | 0.187
AGAGGTGG | -0.0142
ACTAGGCC | -0.304
TGACAACA | 0.0689
AATATCTA | -7e-05
ATTAAACA | 0.157
GAACCTCC | 0.0151
GGTGACGA | 0.0891
CAGCTCCC | -0.254
TTCAGGAA | 0.118

Sequence | PBM E-score
CTTGCCAA | -0.105
AAAGACCA | -0.00497
CACCTCAA | 0.101
ATGACATC | 0.162
CCCTAGGG | -0.201
TGACCAAA | 0.101
AATAATCT | 0.142
ATTAGGCG | -0.0372
ATGAACGA | 0.0693
GGAACCTA | 0.0295
ACTGAATG | -0.0478
CGCCTACG | -0.155
GGCGGGAA | 0.00719
ACGACTAT | -0.0677
CTCATCCC | 0.0715
ACCGCCCT | -0.00709
CAGATTGC | -0.0985
AGGGATCG | -0.153
CACCTCAG | -0.0725
